Screen size: about 48,000 compounds; about 120 (0.25%) were called active. Roughly 4% stayed inconclusive and do not appear here. Calls come from the whole dose curve; as a rule, active = well fitted activation curve with a large enough effect; inconclusive = small, poorly fitted or top-dose-only effect, or another doubt; inactive = no such curve, though single readings can be large or run the other way. Some of the results follow.
Assay: Primary qHTS for Identification of Small Molecule Activators of Huntingtin-Antisense Promoter Activity; note: nearly all actives have a fitted effect of over 55% in size
Conditions: HEK293 HTT-AS promoter firefly luciferase reporter (activity 0% = vehicle and -100% = no light), 24 h; series mostly up to 57.5 µM; activity change, positive = activation: at the top concentration
Procedure, shortened: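 Quantitative HTS used concentration series of up to 57.5 uM final on HEK293 luciferase reporter cells, 24 h at 37 degrees C. Readout was Dual-Glo firefly luminescence.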

Activity change, positive = activation, inactive:
CCOC(=O)c1cccc(NC(=O)NCCc2c(C)nn(C)c2C)c1 1.44%
Cc1cccc(C)c1OCCCCn1c(C2CC(=O)N(c3ccc(F)cc3)C2)nc2ccccc21 (configuration not stated) -58.3%
CCc1cccc2sc(N3CCN(C(=O)C4CC4)CC3)nc12 -21.4%
Cc1ccc2cccc(NC(=O)c3cccc4ccccc34)c2n1 -16%
O[C@@H](CNC[C@H](O)[C@H]1CCc2cc(F)ccc2O1)[C@@H]1CCc2cc(F)ccc2O1
CCN1C(=O)c2cccc3c(S(=O)(=O)Nc4ccc(O)c(C(=O)O)c4)ccc1c23 -4.08%
CC(C)(C)OC(=O)N1CCC(c2c(C(=O)N3CCc4ccccc4C3)cnn2-c2ccc(Cl)cc2)CC1 -24.9%
CCOc1ccccc1C(=O)N(Cc1ccc(N(C)C)cc1)CC1CCCO1 (configuration not stated) -8.91%
Cc1cc(C)cc(C(=O)N2CC(=O)Nc3ccc(C)cc3C2c2ccccc2)c1 (configuration not stated) -25.6%
CCCCNC(=O)CSc1nc2cc3c(cc2c(=O)n1CCCC(=O)NCc1ccc2c(c1)OCO2)OCO3 -14.4%
Cc1cccc(-n2c(=O)c3c(c4cc(C)ccc4n3C)n(CC(=O)Nc3ccccc3C(F)(F)F)c2=O)c1 -18.1%
c1ccc(C(c2cccs2)c2c[nH]c3ccccc23)cc1 (configuration not stated) -29.9%
Cc1ccc(-c2noc(CN(C3CCCCC3)S(=O)(=O)c3ccc(Cl)cc3)n2)cc1 -1.95%
Cc1ccc(CNc2ncnc3c2c(-c2ccccc2)cn3-c2cccc(Cl)c2)cc1 3.37%
COc1ccc(-c2nc3n(n2)C(c2ccccc2F)C(C(=O)Nc2cccnc2)=C(C)N3)cc1OC (configuration not stated) -7.71%
Oc1ccc(Cl)cc1Sc1cc(Cl)ccc1O -91.5%
CCCCN(C(=O)c1cccc(S(=O)(=O)N2CCCCC2)c1)C1CCS(=O)(=O)C1 (configuration not stated) -4.67%
COCCCNC(=O)c1sc2ncccc2c1-n1cccc1 22.3%
COc1ccc(C2CC(=O)c3c([nH]c(C(=O)OC4CCC(C)CC4)c3C)C2)cc1OC (configuration not stated) -21.7%
O=C(Nc1ccc(F)c(Cl)c1)N1CCN2CCCCC2C1 (configuration not stated) 13.5%
CC(=O)c1ccc(NC(=O)Cn2nc(C(F)(F)F)c3c2CCC3)cc1 13.2%
Cc1ccc(CSc2c(C)cnc3c2c(=O)n(C)c(=O)n3C)cc1 -30.7%
O=C(Cn1ncc2c3ccccc3n(Cc3ccccc3)c2c1=O)NCc1cccs1 -2.39%
CCOC(=O)C1=C(CN2CCN(c3ccc(Cl)cc3)CC2)NC(=O)NC1c1ccc(OC)cc1 (configuration not stated) -1.02%
CCc1nc2ccc(C(=O)N3CCN(c4ccccc4F)CC3)cc2nc1CC -26.8%
Cc1ccc(Cl)cc1N1CCN(C(=O)Cn2cnc3onc(-c4ccc(F)cc4)c3c2=O)CC1 -18.6%
CCCCNC(=O)CCC1N=C2c3ccccc3N=C(SCC(=O)NCCc3ccc(OC)c(OC)c3)N2C1=O (configuration not stated) -5.34%

From PubChem BioAssay AID1508624 (National Center for Advancing Translational Sciences (NCATS), 2021)
